In the supplement of paper PMC10126150:
Sequences with one replicate were seen in a single cluster, so their values are uncertain.

Tested on: ATP
Assay: switch fluorescence ratio, 500 uM ATP over buffer (Cy3 cluster intensity, sum of 5 cycles each) (fold (ratio)); higher = stronger signal-on switching upon ATP binding; sequences stand for … in TCGTCGGCAGCGTCAGATGTGTATAAGAGACAGTTTTTTTTTTTTTTTTTTTTTTTTT…TC
Conditions: aptamer strand: ATP DNA aptamer (quencher-CACCTGGGGGAGTATTGCGGAGGAAGG + anchor), 100 nM annealed; ATP concentration: 500 uM; one replicate
Method in brief: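 Clusters with intensities outside 100-1000 RFU were excluded. The remaining Cy3-labelled switching-strand clusters on a modified Illumina MiSeq flow-cell had been annealed to 100 nM quencher-labelled ATP aptamer and imaged in selection buffer, then after 15 min with 500 uM ATP at 22 °C, for five cycles separated by NaOH stripping and re-annealing. The fluorescence ratio, averaged per switch-domain sequence, is each cluster's summed target-cycle Cy3 intensity over its summed buffer-cycle Cy3 intensity.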
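Further: ATP exposure 15 min at 22 °C before imaging.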

Row | Sequence | switch fluorescence ratio
1 | GTATATTATA | 0.968
2 | GCAGGTATAC | 1.76
3 | AGGGTAAAAC | 1.04
4 | CGTCCCAGTT | 1.06
5 | TCGCGACTAT | 1.01
6 | ATGTTGCGGA | 0.99
7 | AGCTATAAAA | 1.07
8 | AATCCTGGCT | 1.02
9 | TGGCGAAATT | 1.01
10 | GAAGCTGACT | 1.04
11 | CGGTGATAGT | 1.02
12 | ATCTCTCTGA | 1.02
13 | GGAGTCGGAT | 0.981
14 | AACCAGCACT | 1.07
15 | CACCGTGAG | 1.1
16 | TTTCTTTTCA | 1.06
17 | AACGGGAATA | 1.01
18 | CACACCACGG | 1.57
19 | AGGAATCAGG | 1.04
20 | CGAGGAGTCG | 0.978
21 | TTTAGAAGTA | 1.01
22 | TTGTGATAGG | 0.984
23 | ATGCTCTGAT | 0.975
24 | TGGAGGGGAA | 1.2
25 | TGGTAGCCTG | 1
26 | CTGGGGTCGC | 1.58

Row | Sequence | switch fluorescence ratio
27 | TTTGTCGTT | 0.99
28 | GGGGTAAACG | 1.1
29 | TGCATAAGGA | 1.02
30 | CGAGTCATCT | 0.965
31 | AACTCGACGC | 1.5
32 | TACTCTTTCC | 1.15
33 | TGGCGGCTTG | 0.976
34 | GGGTAGCGGA | 0.969
35 | TTTAGGAGG | 0.999
36 | GATCTGACAG | 1.01
37 | AATCAGGGAT | 1.03
38 | GAGAAATTGA | 1.02
39 | TATCGATGTC | 1.01
40 | CCGCTCCTCG | 2.24
41 | GGGACCATGG | 1.02
42 | TAACTGGGAT | 1.01
43 | TACGAACGGG | 1.43
44 | GGTGGTAAAT | 1
45 | GAAGGATGCA | 1.02
46 | GTATCAATCT | 1.01
47 | TGGTTCACAT | 1.02
48 | ACGTAGGGAA | 1.02
49 | ACAGGCAAGC | 1.28
50 | GCTTTTTAAT | 1.09
51 | GCAACTGAAC | 1.13
52 | TTATCAATT | 0.996

Row | Sequence | switch fluorescence ratio
53 | GAAGCAGAT | 1.17
54 | GGATGCGGGC | 1.08
55 | AAGTATGCAA | 1.01
56 | CTAGAACAGC | 0.998
57 | AAATAACGTG | 0.987
58 | AAAAAGTGTT | 1.05
59 | GAGAATGAAG | 0.973
60 | CCGAGTTAAA | 1.3
61 | CACGACGGGT | 0.971
62 | TTCGACAGTC | 0.947
63 | TCACTCTTTA | 1.04
64 | GGATAAAACT | 1.04
65 | TCGAGACTA | 0.984
66 | TGTTAGTCCG | 0.915
67 | CCGATTGAGA | 1.03
68 | CTGGGTCCGA | 1.03
69 | TCACGTAGTT | 1.03
70 | GGGGCATTAA | 0.97
71 | AGTTGGTAAG | 0.954
72 | GAAATATATC | 0.995
73 | AAATGATGTG | 1.03
74 | TGCGGTCCCT | 1.14
75 | CCAGGGGATA | 1.04
76 | AGCATCCTTT | 1.01
77 | GAGTGTAGGT | 1.07
78 | GGCAATAAT | 1.31

Row | Sequence | switch fluorescence ratio
79 | GACAGAAGCC | 1.05
80 | CAGCTGCGCA | 0.989
81 | AGTGGTGTG | 1
82 | TTTGCTCGAA | 1.02
83 | ATTGGAGTTC | 0.997
84 | TATTACATGA | 1.03
85 | ATCTGTACGT | 0.948
86 | GGAAGTTCCA | 0.985
87 | GGCGAAGAGG | 1.03
88 | CCTCGAACGG | 1.15
89 | ACGCGGTTTC | 1.08
90 | GGAAAGCACC | 1.11
91 | AGGGTGTCTA | 1.01
92 | CTCATTATAC | 1.97
93 | AGAAACCGGC | 0.974
94 | CGGATTCGCG | 1.02
95 | ATAGTCAAAT | 0.955
96 | CCTTTCTATG | 1.13
97 | CAAAACGTTA | 1.03
98 | CCTTGCGTT | 1.2
99 | AGAAGCATGA | 1.03
100 | AAGCGAATCC | 1.15
101 | ACTGAGGTTC | 1.04
102 | AGGATGTGAT | 0.968
103 | TATTAATATC | 1.02
104 | ACGACGGGAA | 1.55

Row | Sequence | switch fluorescence ratio
105 | TAGTAGACGC | 0.985
106 | AGCGTGCAAC | 0.999
107 | TACGGACATA | 1.21
108 | GCATTATGCA | 0.975
109 | TCTTGGCAAG | 0.973
110 | AAAGAGTTAA | 1.03
111 | CTTCGGGGGC | 1.04
112 | TATTCAGTTA | 0.986
113 | TTTATCAGAG | 1.03
114 | GTTTGACGGG | 0.994
115 | TCGGCGTCCG | 1.01
116 | TCGTCGCATA | 1.84
117 | GGGAATTGCT | 0.981
118 | CACAGGGAAA | 1
119 | TAAGTTATTG | 1
120 | GATTAGGCTT | 0.978
121 | TGTATGGCTG | 1.03
122 | TTTGAACAGC | 1.02
123 | GATCTTGGTG | 0.992
124 | AAGACTGACC | 1.13
125 | TCTTCGGCAA | 1.12
126 | GTTGGTAGTC | 0.976
127 | CACTGGCCGC | 1.15
128 | CAGCGTTTGG | 1
129 | TGCGCCCCAA | 1.15
130 | ATTTGACGCC | 1.04

Row | Sequence | switch fluorescence ratio
131 | TCATTCACTG | 1.11
132 | CGTAGCTCCG | 1.11
133 | TACGGACGTC | 0.978
134 | TTCTGTTCCT | 0.992
135 | TAGGCTCTC | 1.01
136 | TGAGTAACAA | 0.992
137 | CGTAGAGGGT | 1.01
138 | GAGGACATTC | 1
139 | TGCAAAATGA | 0.977
140 | GTTAGCGGCG | 1.04
141 | ATATGTTGGC | 0.981
142 | GTAGGGGCAA | 1.09
143 | ATGGACTTCT | 1.01
144 | TTCTTTCCCG | 1.07
145 | AGACTGCATC | 1.05
146 | CAGAGCGGTA | 1.05
147 | GGCTTGTAGT | 1.01
148 | CTATGGTTGC | 0.93
149 | TGTTGGTAGC | 1.01
150 | GCGAAACGCG | 1.01
151 | AGTCTCATGC | 0.955
152 | GAGGGCAAGA | 1.08
153 | ATGAACTATT | 0.984
